Out of some 310,000 compounds screened, about 2,200 (0.71%) showed an effect of 50% or more. Effects have a minus sign here. The list shows a part of the results.
target: human ether-à-go-go-related gene (hERG) potassium channel (human, UniProt Q12809); test: primary screen, population patch clamp on CHO cells stably expressing hERG
Sequence (Q12809 whole entry, looked up): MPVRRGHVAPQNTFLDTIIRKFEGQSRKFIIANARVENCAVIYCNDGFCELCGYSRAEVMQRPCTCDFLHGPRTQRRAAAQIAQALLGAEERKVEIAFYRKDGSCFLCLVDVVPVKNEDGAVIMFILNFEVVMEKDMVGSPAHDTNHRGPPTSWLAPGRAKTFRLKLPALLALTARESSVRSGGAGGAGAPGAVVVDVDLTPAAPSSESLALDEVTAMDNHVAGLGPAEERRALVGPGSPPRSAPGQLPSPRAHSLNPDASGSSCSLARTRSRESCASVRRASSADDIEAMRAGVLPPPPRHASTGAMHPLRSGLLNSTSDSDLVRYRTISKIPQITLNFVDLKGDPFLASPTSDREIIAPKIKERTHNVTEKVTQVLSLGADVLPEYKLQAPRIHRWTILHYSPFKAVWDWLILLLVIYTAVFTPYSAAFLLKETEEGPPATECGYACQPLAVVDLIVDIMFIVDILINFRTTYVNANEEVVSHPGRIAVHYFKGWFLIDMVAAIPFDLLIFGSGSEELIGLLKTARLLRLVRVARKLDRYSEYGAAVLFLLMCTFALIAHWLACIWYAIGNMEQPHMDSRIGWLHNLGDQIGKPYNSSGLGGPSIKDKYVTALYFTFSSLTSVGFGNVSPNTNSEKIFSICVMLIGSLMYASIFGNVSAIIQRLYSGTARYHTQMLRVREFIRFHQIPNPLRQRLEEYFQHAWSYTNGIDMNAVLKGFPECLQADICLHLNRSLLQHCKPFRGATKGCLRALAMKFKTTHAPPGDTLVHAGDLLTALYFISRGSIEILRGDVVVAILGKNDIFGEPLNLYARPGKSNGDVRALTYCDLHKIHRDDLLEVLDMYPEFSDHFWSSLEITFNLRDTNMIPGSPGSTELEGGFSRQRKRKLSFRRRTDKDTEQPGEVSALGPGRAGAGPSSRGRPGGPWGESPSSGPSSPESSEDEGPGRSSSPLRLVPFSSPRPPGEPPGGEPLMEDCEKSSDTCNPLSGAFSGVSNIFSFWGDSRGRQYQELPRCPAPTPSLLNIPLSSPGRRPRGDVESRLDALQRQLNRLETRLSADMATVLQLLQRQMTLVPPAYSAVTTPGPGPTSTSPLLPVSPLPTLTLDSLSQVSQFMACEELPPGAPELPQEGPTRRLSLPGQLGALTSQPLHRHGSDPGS

SMILES | hERG current change (%, negative = inhibition) at 1uM [%]
Cc1c(OC(C)C(=O)NCc2ccccn2)ccc2c3c(c(=O)oc12)CCCC3 (stereo not shown) | 13.4
CC(C)CC(c1nnnn1Cc1ccco1)N1CCN(C2CCCC2)CC1.Cl (stereo not shown) | -10.4
COc1cccc2c(O)cc(=O)n(C)c12 | 11.6
N#Cc1ccc(/C=N/NC(=O)c2cc(-c3cccs3)nc3ccccc23)cc1 | 14.4
Cc1ccccc1-n1c(C)cc(/C=C2\NC(=O)NC2=O)c1C | 0.238
CCc1cc(=O)oc2cc(OCC(N)=O)c(Cl)cc12 | 8.81
CC(C)Cn1c(N)c(C(=O)NCc2cccs2)c2nc3ccccc3nc21 | 8.7
O=C(Cc1ccc(S(=O)(=O)N2CCOCC2)s1)Oc1ccc(F)cc1 | 9.37
CCC(C(=O)Nc1ncn[nH]1)(C(F)(F)F)C(F)(F)F | 1.81
CCN(Cc1nc2ccccc2c(=O)[nH]1)C(=O)c1cc(C2CC2)nn1-c1ccccc1 | 7.83
Cc1ccc(CN2C(=O)CCC2C(=O)NCCCN2CCCC(C)C2)cc1 (stereo not shown) | 9.09
Cn1c(O)c(C(=N)COc2cccc(Cl)c2)c(=O)n(C)c1=O | 0.965
Cc1nnc(N/N=C/c2cc([N+](=O)[O-])c(N3CCC(C)CC3)cc2N2CCC(C)CC2)n1N.Cl | 5.31
CCN1CCN(C(CNS(=O)(=O)c2ccccc2)c2cccnc2)CC1 (stereo not shown) | -3
CC(=O)Nc1ccc(NC(=O)C(C)Oc2ccccc2C(=O)NCc2ccccc2)cc1 (stereo not shown) | -11.7
Nc1ccccc1C(=O)OC1CSC1 | 14.9
CCCC/C(O)=C1\C(=O)CC(C)(C)CC1=NCCCCCC(=O)O | 9.51
Cc1cc(CNC(=O)COc2ccc([N+](=O)[O-])cc2)c2ccccc2n1 | -11.5
CCCOC(=O)Nc1nc2ccccc2o1 | 14.9
Cc1cc(F)ccc1S(=O)(=O)Nc1ccc(C(=O)N(C)Cc2ccco2)cc1 | 1.17
O=C(c1cnn2c(C(F)(F)F)cc(-c3ccc(F)cc3)nc12)N1CCc2ccccc2C1 | 4.6
S=C(NNc1cccc(Cl)c1)NC1CCCCC1 | 5.2
CCOC(=O)Cn1cnc2scc(-c3ccc(C)cc3)c2c1=O | 13.5
COC(=O)COc1ccc(S(=O)(=O)N2CCc3ccccc3C2)cc1 | 1.48
CN(C(=O)C(Cl)Cl)C1CC2C=CC1C2 (stereo not shown) | 14.6

— paper PMC4336329 (PLoS ONE, 2015)
